From publication PMC12820563
The other results are listed elsewhere or left out. The list includes weakly bound sequences.

target: T1, MBP-FoxP3dN (UniProt Q99JB6); assay: PD-seq (MBP pull-down with sequencing); settings: 20 mM Tris-HCl pH 7.5, 100 mM NaCl, 1.5 mM MgCl2, 0.4 uM protein, 0.1 uM dsDNA library, 30 min, room temperature, amylose pull-down; high values mean tight binding; double strand, one strand shown
T1 sequence: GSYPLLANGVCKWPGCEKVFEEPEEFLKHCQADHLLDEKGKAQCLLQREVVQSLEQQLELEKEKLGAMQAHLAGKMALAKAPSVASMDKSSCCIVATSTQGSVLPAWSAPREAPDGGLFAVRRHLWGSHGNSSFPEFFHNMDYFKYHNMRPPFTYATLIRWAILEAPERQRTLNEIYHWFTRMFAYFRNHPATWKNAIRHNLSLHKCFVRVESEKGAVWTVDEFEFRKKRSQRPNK

Sequence | binding signal (RPM ratio (pull-down/input))
GATGATTGTTCTCCCAGCTGATGAATTGTCAGCTTCGAGTAAACAAATTTTCCTAATCTTTCTGTTCAAGCGCCATCTAC | 0.463
GATGATTGTTCTCCCAGCTGATGAATTTGGGTCATCGAGTAAACAAATTTTCCTAATCTTTCTGTTCAAGCGCCATCTAC | 0.724
GATGATTGTTCTCCCAGCTGATGAATTACAAATGTCGAGTAAACAAATTTTCCTAATCTTTCTGTTCAAGCGCCATCTAC | 0.549
GATGATTGTTCTCCCAGCTGATGAATTTGACGATTCGAGTAAACAAATTTTCCTAATCTTTCTGTTCAAGCGCCATCTAC | 0.377
GATGATTGTTCTCCCAGCTGATGAATTTTCGAAGTCGAGTAAACAAATTTTCCTAATCTTTCTGTTCAAGCGCCATCTAC | 0.208
GATGATTGTTCTCCCAGCTGATGAATTCCCATCGTCGAGTAAACAAATTTTCCTAATCTTTCTGTTCAAGCGCCATCTAC | 0.366
GATGATTGTTCTCCCAGCTGATGAATTGGCGCTTTCGAGTAAACAAATTTTCCTAATCTTTCTGTTCAAGCGCCATCTAC | 1.23
GATGATTGTTCTCCCAGCTGATGAATTTTATCGCTCGAGTAAACAAATTTTCCTAATCTTTCTGTTCAAGCGCCATCTAC | 0.542
GATGATTGTTCTCCCAGCTGATGAATTCTTGTTTTCGAGTAAACAAATTTTCCTAATCTTTCTGTTCAAGCGCCATCTAC | 1.83
GATGATTGTTCTCCCAGCTGATGAATTGGAGCAATCGAGTAAACAAATTTTCCTAATCTTTCTGTTCAAGCGCCATCTAC | 1.66
GATGATTGTTCTCCCAGCTGATGAATTGGCTCATTCGAGTAAACAAATTTTCCTAATCTTTCTGTTCAAGCGCCATCTAC | 0.367
GATGATTGTTCTCCCAGCTGATGAATTCAATCTTTCGAGTAAACAAATTTTCCTAATCTTTCTGTTCAAGCGCCATCTAC | 0.304
GATGATTGTTCTCCCAGCTGATGAATTTTAGTATTCGAGTAAACAAATTTTCCTAATCTTTCTGTTCAAGCGCCATCTAC | 1.58
GATGATTGTTCTCCCAGCTGATGAATTTCCTCAGTCGAGTAAACAAATTTTCCTAATCTTTCTGTTCAAGCGCCATCTAC | 0.181
GATGATTGTTCTCCCAGCTGATGAATTAAGCCACTCGAGTAAACAAATTTTCCTAATCTTTCTGTTCAAGCGCCATCTAC | 5.24
GATGATTGTTCTCCCAGCTGATGAATTTGAATCATCGAGTAAACAAATTTTCCTAATCTTTCTGTTCAAGCGCCATCTAC | 0.702
GATGATTGTTCTCCCAGCTGATGAATTTATCCAATCGAGTAAACAAATTTTCCTAATCTTTCTGTTCAAGCGCCATCTAC | 0.496
GATGATTGTTCTCCCAGCTGATGAATTCCCCCCATCGAGTAAACAAATTTTCCTAATCTTTCTGTTCAAGCGCCATCTAC | 0.234
GATGATTGTTCTCCCAGCTGATGAATTGACTGTGTCGAGTAAACAAATTTTCCTAATCTTTCTGTTCAAGCGCCATCTAC | 0.621
GATGATTGTTCTCCCAGCTGATGAATTGACAGAATCGAGTAAACAAATTTTCCTAATCTTTCTGTTCAAGCGCCATCTAC | 0.263
GATGATTGTTCTCCCAGCTGATGAATTGGGTCACTCGAGTAAACAAATTTTCCTAATCTTTCTGTTCAAGCGCCATCTAC | 0.546

Sequence | binding signal (RPM ratio (pull-down/input))
GATGATTGTTCTCCCAGCTGATGAATTTGTGCTTTCGAGTAAACAAATTTTCCTAATCTTTCTGTTCAAGCGCCATCTAC | 2.84
GATGATTGTTCTCCCAGCTGATGAATTGAATCCATCGAGTAAACAAATTTTCCTAATCTTTCTGTTCAAGCGCCATCTAC | 0.369
GATGATTGTTCTCCCAGCTGATGAATTATTGCTCTCGAGTAAACAAATTTTCCTAATCTTTCTGTTCAAGCGCCATCTAC | 0.744
GATGATTGTTCTCCCAGCTGATGAATTTGATTGCTCGAGTAAACAAATTTTCCTAATCTTTCTGTTCAAGCGCCATCTAC | 5.45
GATGATTGTTCTCCCAGCTGATGAATTATGAGCCTCGAGTAAACAAATTTTCCTAATCTTTCTGTTCAAGCGCCATCTAC | 0.672
GATGATTGTTCTCCCAGCTGATGAATTAGCGACGTCGAGTAAACAAATTTTCCTAATCTTTCTGTTCAAGCGCCATCTAC | 0.415
GATGATTGTTCTCCCAGCTGATGAATTGGTCGTATCGAGTAAACAAATTTTCCTAATCTTTCTGTTCAAGCGCCATCTAC | 0.775
GATGATTGTTCTCCCAGCTGATGAATTTGAGGCTTCGAGTAAACAAATTTTCCTAATCTTTCTGTTCAAGCGCCATCTAC | 0.585
GATGATTGTTCTCCCAGCTGATGAATTGGACAATTCGAGTAAACAAATTTTCCTAATCTTTCTGTTCAAGCGCCATCTAC | 0.333
GATGATTGTTCTCCCAGCTGATGAATTAATGAATTCGAGTAAACAAATTTTCCTAATCTTTCTGTTCAAGCGCCATCTAC | 0.682
GATGATTGTTCTCCCAGCTGATGAATTGCTTAGATCGAGTAAACAAATTTTCCTAATCTTTCTGTTCAAGCGCCATCTAC | 0.962
GATGATTGTTCTCCCAGCTGATGAATTATCTCGGTCGAGTAAACAAATTTTCCTAATCTTTCTGTTCAAGCGCCATCTAC | 0.195
GATGATTGTTCTCCCAGCTGATGAATTAAGTCGCTCGAGTAAACAAATTTTCCTAATCTTTCTGTTCAAGCGCCATCTAC | 0.441
GATGATTGTTCTCCCAGCTGATGAATTACAACTCTCGAGTAAACAAATTTTCCTAATCTTTCTGTTCAAGCGCCATCTAC | 0.948
GATGATTGTTCTCCCAGCTGATGAATTTTGGCACTCGAGTAAACAAATTTTCCTAATCTTTCTGTTCAAGCGCCATCTAC | 0.628
GATGATTGTTCTCCCAGCTGATGAATTAGGCCTCTCGAGTAAACAAATTTTCCTAATCTTTCTGTTCAAGCGCCATCTAC | 5.5
GATGATTGTTCTCCCAGCTGATGAATTAGATGGGTCGAGTAAACAAATTTTCCTAATCTTTCTGTTCAAGCGCCATCTAC | 0.816
GATGATTGTTCTCCCAGCTGATGAATTGATAGACTCGAGTAAACAAATTTTCCTAATCTTTCTGTTCAAGCGCCATCTAC | 0.417
GATGATTGTTCTCCCAGCTGATGAATTGAGGTGATCGAGTAAACAAATTTTCCTAATCTTTCTGTTCAAGCGCCATCTAC | 0.496
GATGATTGTTCTCCCAGCTGATGAATTTACATAATCGAGTAAACAAATTTTCCTAATCTTTCTGTTCAAGCGCCATCTAC | 0.884
GATGATTGTTCTCCCAGCTGATGAATTGACCTGCTCGAGTAAACAAATTTTCCTAATCTTTCTGTTCAAGCGCCATCTAC | 0.266

Sequence | binding signal (RPM ratio (pull-down/input))
GATGATTGTTCTCCCAGCTGATGAATTGGTCCAATCGAGTAAACAAATTTTCCTAATCTTTCTGTTCAAGCGCCATCTAC | 0.286
GATGATTGTTCTCCCAGCTGATGAATTTATCCCGTCGAGTAAACAAATTTTCCTAATCTTTCTGTTCAAGCGCCATCTAC | 0.631
GATGATTGTTCTCCCAGCTGATGAATTTGGGGTATCGAGTAAACAAATTTTCCTAATCTTTCTGTTCAAGCGCCATCTAC | 0.984
GATGATTGTTCTCCCAGCTGATGAATTCAATATTTCGAGTAAACAAATTTTCCTAATCTTTCTGTTCAAGCGCCATCTAC | 1.46
GATGATTGTTCTCCCAGCTGATGAATTTCCGAGCTCGAGTAAACAAATTTTCCTAATCTTTCTGTTCAAGCGCCATCTAC | 0.209
GATGATTGTTCTCCCAGCTGATGAATTTTGGTATTCGAGTAAACAAATTTTCCTAATCTTTCTGTTCAAGCGCCATCTAC | 2.09
GATGATTGTTCTCCCAGCTGATGAATTCCTATCATCGAGTAAACAAATTTTCCTAATCTTTCTGTTCAAGCGCCATCTAC | 0.429
GATGATTGTTCTCCCAGCTGATGAATTGTTTACCTCGAGTAAACAAATTTTCCTAATCTTTCTGTTCAAGCGCCATCTAC | 7.12
GATGATTGTTCTCCCAGCTGATGAATTTCTCCGTTCGAGTAAACAAATTTTCCTAATCTTTCTGTTCAAGCGCCATCTAC | 0.228
GATGATTGTTCTCCCAGCTGATGAATTGATCATCTCGAGTAAACAAATTTTCCTAATCTTTCTGTTCAAGCGCCATCTAC | 0.761
GATGATTGTTCTCCCAGCTGATGAATTCCGGCCTTCGAGTAAACAAATTTTCCTAATCTTTCTGTTCAAGCGCCATCTAC | 1.34
GATGATTGTTCTCCCAGCTGATGAATTGACATGCTCGAGTAAACAAATTTTCCTAATCTTTCTGTTCAAGCGCCATCTAC | 0.584
GATGATTGTTCTCCCAGCTGATGAATTTGCCCCATCGAGTAAACAAATTTTCCTAATCTTTCTGTTCAAGCGCCATCTAC | 0.477
GATGATTGTTCTCCCAGCTGATGAATTTTGGGAATCGAGTAAACAAATTTTCCTAATCTTTCTGTTCAAGCGCCATCTAC | 0.264
GATGATTGTTCTCCCAGCTGATGAATTTAATTAATCGAGTAAACAAATTTTCCTAATCTTTCTGTTCAAGCGCCATCTAC | 0.514
GATGATTGTTCTCCCAGCTGATGAATTCATTGAGTCGAGTAAACAAATTTTCCTAATCTTTCTGTTCAAGCGCCATCTAC | 0.374
GATGATTGTTCTCCCAGCTGATGAATTTAGCAGTTCGAGTAAACAAATTTTCCTAATCTTTCTGTTCAAGCGCCATCTAC | 1.27
GATGATTGTTCTCCCAGCTGATGAATTACTCATTTCGAGTAAACAAATTTTCCTAATCTTTCTGTTCAAGCGCCATCTAC | 0.457
GATGATTGTTCTCCCAGCTGATGAATTTAGCGACTCGAGTAAACAAATTTTCCTAATCTTTCTGTTCAAGCGCCATCTAC | 2.3
GATGATTGTTCTCCCAGCTGATGAATTAAATGGTTCGAGTAAACAAATTTTCCTAATCTTTCTGTTCAAGCGCCATCTAC | 0.781
GATGATTGTTCTCCCAGCTGATGAATTGGTGCCCTCGAGTAAACAAATTTTCCTAATCTTTCTGTTCAAGCGCCATCTAC | 0.611
